The source of these data is a collection of fitness landscapes (doi:10.1126/science.1257360).

The other results are listed elsewhere or left out.

Sequences and labels used below:
B1: PhoQ; a variant is named by its letters at X, in order, P23837 (parent)
chain: MKKLLRLFFPLSLRVRFLLATAAVVLVLSLAYGMVALIGYSVSFDKTTFRLLRGESNLFYTLAKWENNKLHVELPENIDKQSPTMTLIYDENGQLLWAQRDVPWLMKMIQPDWLKSNGFHEIEADVNDTSLLLSGDHSIQQQLQEVREDDDDAEMTHSVAVNVYPATSRMPKLTIVVVDTIPVELKSSYMVWSWFIYVLSANLLLVIPLLWVAAWWSLRPIEALAKEVRELEEHNRELLNPATTRELTSLVRNLNRLLKSERERYDKYRTTLTDLTHSLKTPLXXLQXXLRSLRSEKMSVSDAEPVMLEQISRISQQIGYYLHRASMRGGTLLSRELHPVAPLLDNLTSALNKVYQRKGVNISLDISPEISFVGEQNDFVEVMGNVLDNACKYCLEFVEISARQTDEHLYIVVEDDGPGIPLSKREVIFDRGQRVDTLRPGQGVGLAVAREITEQYEGKIVAGESMLGGARMEVIFGRQHSAPKDE

In this assay the parent is B1. Briefly: enrichment ratio after two sorts for PhoP signalling (ratio (wild type AVST 3.29)); higher = more functional. The following applies: with PhoP (E. coli).
For the variant EYGY, the enrichment ratio is ≤ 0.25.

Take PNPS: the enrichment ratio was ≤ 0.25. As for PCQK, the enrichment ratio is ≤ 0.25. As to FVKH, the enrichment ratio was ≤ 0.25. Turning to HDVG, the enrichment ratio is ≤ 0.25. Next, TYWC: ≤ 0.25; GVDK: ≤ 0.25. Take YLDD: the enrichment ratio is ≤ 0.25. With SLSE the figure was 1.48. As to PHKC, the enrichment ratio is ≤ 0.25. As for PFTN, the enrichment ratio was ≤ 0.25. As to IPRD, the enrichment ratio was ≤ 0.25. In the case of PQQV, the enrichment ratio was ≤ 0.25. With DFRQ, the enrichment ratio is ≤ 0.25.

For the variant AICV, the enrichment ratio came to 15.3. As for RSHI, the enrichment ratio was 0.251. With PEHL the figure was ≤ 0.25; with PCGI, ≤ 0.25. On to VPIP, for which the enrichment ratio was ≤ 0.25. On to CILF, for which the enrichment ratio is ≤ 0.25. Next, LCAH: ≤ 0.25; IQLC: ≤ 0.25; EIWS: ≤ 0.25. Next, KGKG: ≤ 0.25; SFNQ: ≤ 0.25; ARVS: ≤ 0.25. IVYT: the enrichment ratio is ≤ 0.25. As to PSCD, the enrichment ratio is ≤ 0.25. With PTEG, the enrichment ratio is ≤ 0.25.

As to HHAG, the enrichment ratio is ≤ 0.25. With RFHC the figure was ≤ 0.25. On to RSQV, for which the enrichment ratio was ≤ 0.25. With WVSH the figure was ≤ 0.25. Take LEKF: the enrichment ratio was ≤ 0.25. With VLQK the figure was ≤ 0.25; with TLSA, 7.98; with FDNL, ≤ 0.25. With TATH the figure was 3.27. With QVPA the figure was ≤ 0.25; with LRIQ, ≤ 0.25.

As to DWFI, the enrichment ratio was ≤ 0.25.

Consider QTMG, for which the enrichment ratio was ≤ 0.25. Next, DWNE: ≤ 0.25; LQAH: ≤ 0.25; AGAN: 3.14. With KIMW the figure was ≤ 0.25. Next, MNFA: ≤ 0.25; IWEW: ≤ 0.25.

Turning to YRPC, the enrichment ratio was ≤ 0.25.

With SNEG, the enrichment ratio was ≤ 0.25. On to PYGM, for which the enrichment ratio is ≤ 0.25. With YEWD the figure was ≤ 0.25; with DRHV, ≤ 0.25. With FKTW the figure was ≤ 0.25; with ESGV, ≤ 0.25; with RRQM, ≤ 0.25. With TDQA the figure was ≤ 0.25; with NEYV, ≤ 0.25. As for HKTD, the enrichment ratio was ≤ 0.25. EAVV: the enrichment ratio was ≤ 0.25. Next, PIAQ: ≤ 0.25; HRYF: ≤ 0.25; PHMR: ≤ 0.25. Take RCTQ: the enrichment ratio was ≤ 0.25. With AKPG the figure was ≤ 0.25. As for WSLE, the enrichment ratio was ≤ 0.25. Next, DWST: ≤ 0.25; HSYL: 0.277; FTQM: ≤ 0.25. For the variant TPMC, the enrichment ratio was ≤ 0.25. Next, RTGN: ≤ 0.25.

ALLN: the enrichment ratio is 6.8. As to QMVL, the enrichment ratio was ≤ 0.25. With FQQC the figure was ≤ 0.25. Regarding LYWN, the enrichment ratio is ≤ 0.25. Next, VILM: 1.31; IGPT: ≤ 0.25. On to QNII, for which the enrichment ratio is ≤ 0.25.

In the case of EIGN, the enrichment ratio is ≤ 0.25. Consider SCHV, for which the enrichment ratio was ≤ 0.25. Regarding FKVK, the enrichment ratio was ≤ 0.25.

Consider IESP, for which the enrichment ratio is ≤ 0.25. Next, CYYL: ≤ 0.25; FQRN: ≤ 0.25. Next, RDQF: ≤ 0.25; MCMF: 4.63; IQAN: ≤ 0.25. With LFNQ the figure was ≤ 0.25; with WKCT, ≤ 0.25. With FSLN, the enrichment ratio is 9.67. For the variant DCCY, the enrichment ratio is ≤ 0.25.

Turning to RHIQ, the enrichment ratio was ≤ 0.25.

Regarding KMSS, the enrichment ratio was ≤ 0.25.

With TQFC, the enrichment ratio stood at 8.5. With PEYD the figure was ≤ 0.25. Next, HFFA: ≤ 0.25; QWFP: ≤ 0.25.

In the case of ADDC, the enrichment ratio was ≤ 0.25. Regarding LQML, the enrichment ratio was ≤ 0.25. Next, YPFF: ≤ 0.25; VGQG: ≤ 0.25; EPNS: ≤ 0.25. With GLMK the figure was ≤ 0.25; with IQYP, ≤ 0.25; with YNVL, ≤ 0.25. On to IIRT, for which the enrichment ratio was ≤ 0.25. Regarding PFWV, the enrichment ratio was ≤ 0.25. With FVLC the figure was 1.1; with STVR, ≤ 0.25; with DGKT, ≤ 0.25. Turning to YIAH, the enrichment ratio came out at 0.333. Next, AMFY: ≤ 0.25; TPQR: ≤ 0.25; TAWG: 6. As for RQNW, the enrichment ratio was ≤ 0.25. On to QFMV, for which the enrichment ratio is ≤ 0.25. With ANCT the figure was 21. With PPSW the figure was ≤ 0.25; with ERSK, ≤ 0.25; with DKRI, ≤ 0.25. Turning to EVSV, the enrichment ratio was ≤ 0.25. With YDNH the figure was ≤ 0.25; with GCKG, ≤ 0.25; with QFNK, ≤ 0.25.

Regarding DMLF, the enrichment ratio is ≤ 0.25.

As to AITA, the enrichment ratio stood at 3.12. Regarding RPLH, the enrichment ratio is ≤ 0.25. With PFKN the figure was ≤ 0.25; with NLKI, ≤ 0.25.

RYSD: the enrichment ratio was ≤ 0.25. With SYDY the figure was ≤ 0.25; with SQPD, ≤ 0.25; with TQAK, ≤ 0.25. For the variant DQWS, the enrichment ratio was ≤ 0.25. With QQAW the figure was ≤ 0.25; with WNNM, ≤ 0.25; with VMAV, ≤ 0.25. In the case of AFKH, the enrichment ratio was ≤ 0.25. Next, TMMM: 6.28; FDNR: ≤ 0.25. With GDPF the figure was ≤ 0.25; with SLIP, ≤ 0.25; with VLYN, ≤ 0.25. Next, QKSC: ≤ 0.25; NWHY: ≤ 0.25; GCMM: ≤ 0.25. In the case of YFVQ, the enrichment ratio is ≤ 0.25. Next, ELHF: ≤ 0.25; HTPL: ≤ 0.25; NNYP: 0.69.

Regarding NDAV, the enrichment ratio is ≤ 0.25.

On to MPNL, for which the enrichment ratio is ≤ 0.25.

Regarding HLDP, the enrichment ratio was ≤ 0.25.
